# Article PMC10668032
# Some of the results follow. At the low end of the ranking the order means little.
# Biological target: SIX1 homeodomain (reference allele) (UniProt Q15475)
# Assay: universal protein binding microarray
# Details: Universal all-10-mer PBM (8x60K, AMADID 030236), 300 nM GST-tagged protein, Alexa Fluor 488 anti-GST; buffer, salt, pH and temperature not stated; high values mean tight binding; most listed sequences are background and not binding sites; double strand, one strand shown
row,Sequence,binding signal [E-score]
1,CGCCGTCA,-0.216
2,CCTAGGCC,-0.222
3,GTTGAGTA,0.0416
4,ACCTTGTG,0.00398
5,GCTCTTAA,-0.0421
6,TCTTCCAA,-0.158
7,CGGATGTA,0.151
8,CACGTTTC,-0.185
9,GAGCAGAA,-0.0849
10,CACGGACA,-0.0737
11,GACCGAGA,0.0368
12,ACAGTTGA,-0.215
13,ATCGGGAC,0.0114
14,CCGTGGAG,-0.0415
15,ATTTATAC,0.22
16,TAACGTAA,-0.133
17,AGTACGAT,0.248
18,AAATGGTG,0.0734
19,ATAGTTTA,0.0271
20,ACTCCATC,0.162
21,ATCGATTA,0.157
22,AGGCTCGC,-0.136
23,CCACTGCA,-0.173
24,CAGTCTAG,-0.0945
25,CCTGATAC,0.472

row,Sequence,binding signal [E-score]
1,ACTCCGAC,-0.0674
2,GATCGAGC,0.218
3,CAATCATA,0.00404
4,CTCGATAA,0.0567
5,AACGGAAC,-0.327
6,AATGTAGC,-0.138
7,AACTGGGT,0.0276
8,GGGTGCGA,0.00352
9,AAGGTGAT,0.195
10,ACTGTAGA,0.0919
11,CGGATGGC,0.117
12,AGTACCCC,0.088
13,CAAGGAAC,-0.16
14,AAAAACAA,-0.22
15,CAGAGGGG,0.107
16,CTCAGACA,0.0138
17,CAGGTAAG,-0.198
18,TCTCCTCA,-0.0719
19,AAGCATGG,-0.0526
20,CGTGTATA,0.247
21,ACCACGGG,-0.0144
22,GGTAGATA,0.336
23,ACCTCACG,-0.0851
24,AGCGTACC,-0.0396
25,CCATATAA,0.155

row,Sequence,binding signal [E-score]
1,CCCCAGAG,-0.0759
2,TCAGTAAA,-0.143
3,AGGAGGTA,0.101
4,ACTTACTC,-0.00524
5,ACGAGGAG,-0.111
6,CACCCACG,0.0735
7,CGATCGTA,0.212
8,CGTAAACA,-0.107
9,CCTACATC,0.00996
10,ACTGCGCA,-0.216
11,ATCAGACC,0.201
12,AGAATGGA,0.0605
13,GACTTCGC,-0.0934
14,CACGAACC,-0.0908
15,CGCGCGGC,-0.0795
16,CAGCGTGC,-0.125
17,ACTCGGTG,0.0772
18,CTCCGAAA,-0.0788
19,GAATGCTC,-0.166
20,CCACACAG,-0.0725
21,AATCTAGG,0.0649
22,ATACTCAC,0.273
23,AATAACAA,-0.182
24,ACATGTCA,-0.192
25,TCATGAGA,0.118

row,Sequence,binding signal [E-score]
1,ACAGCAAT,0.041
2,CGCGGTCA,-0.0862
3,GTACTTCA,-0.175
4,TCGTGACA,0.207
5,ATCTTCTG,0.0591
6,ACGCCGCT,-0.161
7,GGTCATTA,0.00232
8,CAACTATG,-0.172
9,GTCTCCTA,0.0467
10,CTATGAAC,-0.193
11,CGGACTTA,-0.0961
12,ACTACAGC,-0.122
13,ACTGCTCA,-0.0582
14,CTGACGTA,-0.193
15,CGTTCCGC,-0.138
16,CTACGCAG,-0.0649
17,ACGGAATG,-0.0944
18,AAGTCTAC,-0.0463
19,GGCATGTA,0.101
20,CTTTTCCA,-0.28
21,CGGGTGGC,-0.218
22,AGGTTAAG,-0.132
23,CATCCCGA,0.175
24,ATGCGATA,0.394
25,CTTGTAGC,-0.00035

row,Sequence,binding signal [E-score]
1,AAAGGGGA,0.0726
2,CCTCCGAG,0.0475
3,GTGTCAAA,0.311
4,GCATACGC,-0.0429
5,CAGGTAAA,-0.00592
6,AATCGAGA,0.0539
7,CGCGCAGC,-0.0973
8,ACTGTATC,0.367
9,AAGCTCTC,-0.133
10,GCAGGGAA,-0.215
11,ACTACTAA,-0.116
12,CTTGATTC,-0.106
13,CATTCGGC,-0.0679
14,AACACTCC,-0.232
15,ACTCTGAT,0.145
16,CGCTTCAC,-0.0834
17,CGCTAATC,0.109
18,CTATTGCA,-0.0653
19,CATCTCCA,0.118
20,CTTAGCGC,-0.101
21,GCTATACA,0.229
22,ACTCTGGC,-0.197
23,AACTAGAG,-0.0698
24,CGCGCATA,0.0263
25,CAGTGGGA,0.112

row,Sequence,binding signal [E-score]
1,CTATGCAC,-0.00016
2,AAACCAGG,0.0296
3,CCAGAAAC,0.0403
4,CCGCTCGC,-0.0777
5,GAAGGACC,-0.25
6,CATCTGCA,-0.0137
7,CTAGTTCC,0.041
8,AAAGAATG,-0.104
9,CGGCAGAG,-0.113
10,AAGAGTTA,0.0162
11,CACGCCTC,-0.183
12,ACTCAAGG,-0.119
13,AACTAGTT,-0.339
14,GACATCGA,-0.0421
15,ATGGATTA,0.248
16,CCGGGGAG,0.0117
17,ACTGAATG,-0.158
18,ATATAGGG,0.229
19,GTTTCGCA,-0.172
20,ATCTAAGC,0.0524
21,GGATACTA,0.371
22,GGCTTCCA,-0.222
23,GGTCTAAA,0.0226
24,GTTTGAAA,-0.0153
25,AACGTCAA,-0.318

row,Sequence,binding signal [E-score]
1,ATCCCTAC,0.307
2,GTGTTGCA,-0.0979
3,GCCGTTGA,-0.208
4,ACGGGAAT,0.0958
5,CCCTTCGC,-0.13
6,AAATCGCA,-0.057
7,GGGCTGAA,-0.189
8,AGTTAGAT,0.145
9,GGAGCTAC,-0.222
10,AAAAGAAA,-0.232
11,ACGCCGAA,-0.102
12,CTGAACTC,-0.195
13,ATGTGTAC,-0.0115
14,CGTGTGAA,-0.0949
15,AGGGCAGG,-0.0712
16,GCAAAGTA,0.0938
17,CGAGTAGC,-0.0584
18,ACCGGCCA,-0.0817
19,CTCTAATA,0.115
20,CTCCGATC,0.185
21,CCATCAAC,-0.0896
22,GGCAAGGA,2e-05
23,CTCGGGTC,0.0904
24,AGTAATGC,-0.162
25,AGCAACCG,-0.178

row,Sequence,binding signal [E-score]
1,TAGGTCCA,-0.0626
2,TGTCCTAA,-0.0502
3,AGATTCAC,-0.0796
4,AAAGCGCG,-0.213
5,GAGATGAA,0.143
6,ATCCCATA,0.351
7,CCCCTGGA,0.0189
8,CACCATGA,0.0982
9,TAGGAGGA,0.0767
10,AACCACTC,-0.0169
11,TAGACGCA,0.0362
12,ATCGTGTC,0.274
13,ACGCTCCC,-0.188
14,GCGTCGGA,0.00554
15,AAAACATG,-0.129
16,ATAATCGC,0.0557
17,AGATAAAT,0.081
18,AAATCCTC,-0.133
19,GACCTGAA,-0.216
20,CGACTTTA,-0.309
21,TACCTTCA,0.135
22,AACGTCAC,-0.227
23,CGTAATCA,0.0167
24,AGATAGGA,0.175
25,CGCGCTTA,-0.101

row,Sequence,binding signal [E-score]
1,CTAGTGTA,0.189
2,GTAGTGGA,0.034
3,CGGAACGA,0.028
4,ATAGGAGA,0.185
5,GCCCTCCA,-0.179
6,CAGTCTGC,-0.195
7,AGGGGTGG,0.125
8,GGTTGGTA,0.0294
9,CTACTCAC,0.106
10,GAGTGGAC,-0.197
11,ACGCTTAC,-0.131
12,GGCAAGTA,0.0265
13,CCAAGAGA,0.0348
14,CTGGGTTA,-0.0228
15,CTGTGCCA,-0.094
16,CTTCCTGA,-0.0401
17,GTGTGGTA,0.104
18,GGGTACCC,0.136
19,AGAGCGAG,-0.0295
